The other results are listed elsewhere or left out. Sequences were assembled here from the parent chain. Inactive controls read about 0.05.
B1: TEV protease; numbered along this chain (parent)
chain: MGESLFKGPRDYNPISSSICHLTNESDGHTTSLYGIGFGPFIITNKHLFRRNNGTLVVQSLHGVFKVKDTTTLQQHLVDGRDMIIIRMPKDFPPFPQKLKFREPQREERICLVTTNFQTKSMSSMVSDTSCTFPSGDGIFWKHWIQTKDGQCGSPLVSTRDGFIVGIHSASNFTNTNNYFTSVPKNFMELLTNQEAQQWVSGWRLNADSVLWGGHKVFMVKPEEPFQPVKEATQL

Variants of: B1
Test: raw area under fraction-flipped curve 0-4 h after induction (AUC4h, not background-subtracted), DNA-recorder readout of cleavage of the substrate (dimensionless); higher = more cleavage of the substrate by the protease variant
Settings: temperature: 34 °C; time window: 0-4 h after rhamnose induction
Protocol: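 In vivo DNA recorder in E. coli TOP10(DE3) ΔrhaA at 34 °C. Each TEVp single-site mutant (parent TEVp 0) is paired with a single-site variant of the 7-mer TEVs (canonical ENLYFQ|S). The substrate sits between flexible linkers in a Bxb1-sfGFP-TEVs-SsrA fusion, so cleavage stabilises Bxb1 and speeds flipping of a recombination array, read by NGS. The value is the raw area under the fraction-flipped curve over 0-4 h after rhamnose induction (AUC4h), with ≥20 reads per time point. It is not background-subtracted; inactive controls average about 0.047.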
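Further: Bxb1 expression induced with 0.2% (w/v) L-rhamnose at OD600 near 0.5, cultures sampled hourly, flipped fraction per protease–substrate barcode pair counted by paired-end Illumina sequencing.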

Variant | area with substrate ENLYFQA | area with substrate ENLYFQC | area with substrate ENLYFQH | area with substrate ENLYFQI | area with substrate ENLYFQK | area with substrate ENLYFQL | area with substrate ENLYFQM | area with substrate ENLYFQN | area with substrate ENLYFQP | area with substrate ENLYFQR | area with substrate ENLYFQS | area with substrate ENLYFQV | area with substrate ENLYFQW | area with substrate ENLYFQF | area with substrate ENLYFQQ | area with substrate ENLYFQT | area with substrate ENLYFQY | area with substrate ENLYFQG | area with substrate ENLYFQD | area with substrate ENLYFQE
L56V | 0.062 | 0.0858 | 0.0765 | 0.0508 | 0.0574 | 0.0558 | 0.0587 | 0.0562 | 0.0659 | 0.0549 | 0.0802 | 0.0536 | 0.0582 | – | – | – | – | – | – | –
V57G | 0.134 | 0.105 | – | 0.0525 | – | – | – | 0.0815 | – | 0.0618 | 0.0968 | – | – | 0.0935 | 0.0661 | 0.0643 | 0.0589 | – | – | –
V57L | 0.0962 | – | 0.0831 | 0.0539 | – | 0.0599 | 0.0847 | – | – | 0.0727 | 0.111 | – | 0.0372 | 0.116 | – | – | – | 0.0878 | – | –
V57W | 0.0966 | 0.135 | 0.0958 | 0.0643 | 0.0543 | 0.0919 | – | – | 0.0668 | 0.0534 | 0.0982 | 0.0472 | – | – | – | 0.0632 | 0.086 | 0.0942 | 0.0801 | 0.0632
H62D | 0.087 | 0.119 | 0.0817 | 0.0652 | 0.0516 | 0.0604 | 0.0685 | 0.083 | 0.0496 | 0.0638 | 0.0971 | – | 0.0561 | – | – | 0.0572 | 0.0872 | 0.0905 | 0.0639 | –
H62F | 0.106 | 0.158 | 0.082 | 0.0593 | 0.0656 | 0.0575 | – | 0.0698 | 0.0559 | 0.0526 | 0.0982 | 0.06 | 0.0707 | – | 0.061 | 0.0571 | 0.0732 | 0.0956 | 0.0589 | –
H62V | 0.0982 | 0.0957 | 0.0717 | 0.0454 | – | 0.0745 | – | 0.065 | – | 0.0562 | 0.0952 | 0.056 | 0.0722 | – | – | 0.0606 | 0.0709 | – | – | –
G63Q | 0.0932 | 0.112 | 0.0781 | 0.0525 | 0.0623 | 0.0654 | 0.105 | 0.0618 | – | 0.0439 | 0.0986 | – | 0.0658 | – | – | 0.0554 | 0.0538 | 0.0914 | – | 0.0966
F65W | 0.106 | 0.106 | 0.0798 | 0.0589 | 0.0526 | 0.0722 | 0.106 | – | 0.055 | 0.0389 | 0.111 | 0.0666 | 0.0484 | – | 0.118 | 0.0644 | 0.0732 | 0.0784 | 0.0526 | 0.0539
K66P | 0.0936 | 0.0739 | 0.049 | 0.0723 | – | 0.0679 | 0.0713 | 0.0708 | – | 0.0585 | 0.0909 | 0.0675 | 0.0575 | – | – | – | 0.071 | 0.0932 | 0.0533 | 0.0734
V67D | 0.0595 | 0.0787 | 0.0455 | 0.0393 | 0.0517 | 0.0377 | – | 0.0517 | 0.0633 | 0.054 | 0.0598 | 0.0582 | 0.0417 | – | – | 0.0556 | 0.0434 | – | 0.0563 | –
V67T | 0.082 | 0.08 | – | 0.0494 | 0.0693 | 0.0481 | – | – | 0.0553 | 0.06 | 0.0855 | – | – | – | – | 0.0705 | 0.0555 | 0.0612 | – | –
D69W | 0.0846 | 0.0822 | 0.0786 | 0.0497 | 0.0361 | 0.0665 | 0.0652 | 0.0707 | – | 0.0578 | 0.0803 | 0.0548 | 0.0691 | – | – | 0.0716 | – | – | 0.0609 | –
T70S | 0.0996 | 0.114 | – | – | 0.0824 | 0.0597 | 0.0973 | 0.0676 | 0.0631 | 0.0468 | 0.0985 | 0.0729 | – | 0.0984 | – | 0.0629 | – | – | 0.0897 | –
T71C | 0.112 | 0.114 | 0.0729 | 0.0535 | 0.0575 | 0.0614 | 0.0795 | 0.0824 | – | 0.0532 | 0.0985 | – | 0.0574 | 0.0501 | 0.0663 | 0.0575 | – | 0.0791 | 0.0699 | –
T71L | 0.0878 | 0.148 | – | 0.072 | – | 0.06 | – | 0.0745 | 0.078 | 0.0671 | 0.107 | 0.0495 | 0.0631 | – | – | 0.0663 | – | – | – | –
L73P | 0.063 | 0.0616 | 0.0491 | – | 0.0462 | 0.0577 | 0.0484 | 0.0503 | – | 0.0435 | 0.0573 | – | 0.0636 | 0.0549 | – | 0.0584 | 0.0549 | 0.052 | 0.0513 | 0.0399
L73Y | 0.0771 | 0.0748 | 0.0632 | 0.054 | 0.0358 | 0.0466 | 0.0594 | 0.0521 | 0.0587 | 0.0531 | 0.0708 | 0.054 | – | 0.053 | – | – | 0.0554 | 0.0573 | 0.0606 | –
Q74V | 0.0659 | 0.0729 | 0.063 | – | 0.0514 | 0.0682 | 0.0771 | 0.0569 | 0.0532 | 0.059 | 0.0714 | 0.0599 | 0.0593 | 0.0624 | – | 0.0624 | 0.0664 | 0.0737 | 0.0546 | –
L77N | 0.0682 | 0.0685 | 0.0628 | 0.0532 | 0.0646 | 0.0533 | – | 0.0609 | – | 0.0588 | 0.0673 | 0.0948 | 0.0587 | 0.0614 | 0.0655 | 0.0577 | 0.0655 | 0.077 | 0.0553 | –
V78C | 0.0891 | 0.109 | 0.0707 | 0.0645 | 0.0644 | 0.0617 | 0.081 | 0.0726 | 0.0522 | 0.0926 | 0.0987 | 0.0533 | 0.0513 | 0.0729 | – | 0.0645 | 0.0739 | – | – | 0.0586
V78S | 0.0751 | 0.075 | 0.0568 | 0.055 | 0.0604 | 0.0593 | 0.0643 | 0.0674 | 0.0517 | 0.0557 | 0.0742 | 0.047 | 0.07 | – | – | 0.0489 | 0.0595 | 0.0734 | – | –
D82Y | 0.0464 | 0.0642 | – | – | – | 0.0544 | 0.06 | 0.0492 | – | 0.0549 | 0.0556 | 0.0395 | – | – | – | 0.0558 | – | – | – | –
M83W | 0.0587 | – | 0.0519 | 0.0592 | 0.0586 | 0.0609 | 0.065 | – | 0.0698 | 0.0717 | 0.0633 | 0.0629 | 0.0742 | 0.0373 | – | 0.0603 | 0.0655 | 0.0571 | – | –

— the supplement of paper PMC12217912
